From article PMC4336329 (PLoS ONE, 2015) come the findings set out here.

Out of some 310,000 compounds screened, about 14,000 (4.5%) showed an effect of 50% or more. Effects have a minus sign here. This is one part of the list.
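Also: peak tail current of the secondary pulse compared with the same well before compound.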

human ether-à-go-go-related gene (hERG) potassium channel, sequence (Q12809 whole entry, looked up): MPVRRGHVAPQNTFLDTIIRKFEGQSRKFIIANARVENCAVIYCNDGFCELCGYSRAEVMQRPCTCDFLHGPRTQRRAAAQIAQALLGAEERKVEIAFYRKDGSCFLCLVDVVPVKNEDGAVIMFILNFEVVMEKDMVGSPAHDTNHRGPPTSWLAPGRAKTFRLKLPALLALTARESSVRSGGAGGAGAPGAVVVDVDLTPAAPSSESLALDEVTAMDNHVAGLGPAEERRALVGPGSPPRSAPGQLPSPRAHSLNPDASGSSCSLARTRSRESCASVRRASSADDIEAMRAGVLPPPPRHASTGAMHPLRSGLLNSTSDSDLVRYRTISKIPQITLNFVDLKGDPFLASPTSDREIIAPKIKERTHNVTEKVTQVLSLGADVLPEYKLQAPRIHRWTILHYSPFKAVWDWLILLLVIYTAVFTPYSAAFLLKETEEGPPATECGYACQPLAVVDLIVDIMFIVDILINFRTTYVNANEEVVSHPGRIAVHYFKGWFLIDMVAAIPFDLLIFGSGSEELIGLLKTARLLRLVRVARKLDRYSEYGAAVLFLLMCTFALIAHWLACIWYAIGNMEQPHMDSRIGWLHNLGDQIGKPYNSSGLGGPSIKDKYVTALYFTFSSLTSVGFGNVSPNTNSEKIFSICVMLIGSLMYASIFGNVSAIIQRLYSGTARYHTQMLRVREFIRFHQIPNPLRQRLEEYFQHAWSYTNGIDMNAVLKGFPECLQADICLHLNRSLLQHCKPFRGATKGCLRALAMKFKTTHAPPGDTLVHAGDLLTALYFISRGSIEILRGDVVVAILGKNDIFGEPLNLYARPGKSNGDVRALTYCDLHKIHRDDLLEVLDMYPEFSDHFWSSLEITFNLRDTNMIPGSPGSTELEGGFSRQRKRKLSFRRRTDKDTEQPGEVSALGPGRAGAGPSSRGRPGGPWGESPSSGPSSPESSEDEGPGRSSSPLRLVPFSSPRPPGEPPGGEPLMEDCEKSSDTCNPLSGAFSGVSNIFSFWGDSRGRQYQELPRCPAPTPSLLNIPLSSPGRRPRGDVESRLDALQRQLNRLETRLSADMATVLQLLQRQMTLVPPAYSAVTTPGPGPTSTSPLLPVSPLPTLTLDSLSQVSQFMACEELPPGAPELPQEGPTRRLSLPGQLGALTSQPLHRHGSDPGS

This experiment addresses human ether-à-go-go-related gene (hERG) potassium channel (human, UniProt Q12809). The experiment can be described thus: primary screen, population patch clamp on CHO cells stably expressing hERG.
`Cc1ccc(-c2csc(NC(=O)CN3CCOCC3)n2)cc1`: the “hERG current change (%, negative = inhibition) at 10uM” value is on record as -8.79%.

Consider `O=[N+]([O-])c1ccc(N2CCN(S(=O)(=O)c3ccccc3)CC2)cc1NCc1cccnc1`, for which the “hERG current change (%, negative = inhibition) at 10uM” value turned out to be 1.8%.

With `NC(=O)NCCCC(NC(=O)c1ccc(C#CC2(O)CCCCC2)cc1)C(=O)O` (centres unmarked), the “hERG current change (%, negative = inhibition) at 10uM” value is reported as 18.1%.

Take `O=c1c(Cc2c(F)cccc2Cl)c(O)ccn1Cc1ccc2c(c1)OCO2`: the “hERG current change (%, negative = inhibition) at 10uM” value is 3.67%.

`COC(=O)CC1Sc2ccccc2NC1=O` (centres unmarked): the “hERG current change (%, negative = inhibition) at 10uM” value is given as 7.56%.

On to `Cc1ccc(F)cc1NC(=O)c1cccc(N(C)C)c1`, for which the “hERG current change (%, negative = inhibition) at 10uM” value is recorded as -4.45%.

For `O=C(N/N=C1/CCSC1)c1cc(Br)ccc1O`, the “hERG current change (%, negative = inhibition) at 10uM” value is -9.66%.

With `Cc1cc(C)c(OCC(=O)Nc2cc(C(=O)O)cc(C(=O)O)c2)cc1C`, the “hERG current change (%, negative = inhibition) at 10uM” value turned out to be 52.1%.

For `Cc1cccc2c(=O)c(C(=O)NCCCN3CCOCC3)c[nH]c12`, the “hERG current change (%, negative = inhibition) at 10uM” value is -2.23%.

As to `CCOC(=O)CC1C(=O)NCCN1C(=O)c1ccc(Cl)c(Cl)c1` (centres unmarked), the “hERG current change (%, negative = inhibition) at 10uM” value was determined as 20.5%.

Take `Cc1ccc(NC(=O)Cc2cc(C(=O)O)c3ccccc3n2)c(C)c1`: the “hERG current change (%, negative = inhibition) at 10uM” value was 26.5%.

Take `CCCc1ccc(C(=O)NNC(=O)c2ccc(Cl)cc2)cc1`: the “hERG current change (%, negative = inhibition) at 10uM” value was -6.9%.

With `COc1ccc(CCNC(=O)COC(=O)Cc2ccc(OC)cc2)cc1`, the “hERG current change (%, negative = inhibition) at 10uM” value came to 9.48%.

Turning to `O=C(O)CN(c1ccccn1)S(=O)(=O)c1ccccc1`, the “hERG current change (%, negative = inhibition) at 10uM” value is -8.38%.

Regarding `COc1ccc(-n2c(SCC(N)=O)nc3nc4c(cc3c2=O)COC(C)(C)C4)cc1`, the “hERG current change (%, negative = inhibition) at 10uM” value was determined as 10.1%.

In the case of `COc1ccc(N=Nc2c(O)[nH]c(=S)[nH]c2=O)cc1`, the “hERG current change (%, negative = inhibition) at 10uM” value was found to be 31.7%.

Take `C/C(=N\O)C(C)(C)Nc1cccc(Br)c1`: the “hERG current change (%, negative = inhibition) at 10uM” value came to 17%.

Consider `O=C(C1COc2ccccc2O1)N1CCN(Cc2ccccc2)CC1` (centres unmarked), for which the “hERG current change (%, negative = inhibition) at 10uM” value is given as -7.63%.

In the case of `CCCCc1noc2c1/C(=N\O)CC(c1ccccc1)C2` (centres unmarked), the “hERG current change (%, negative = inhibition) at 10uM” value came to 7.26%.

For the compound `O=C(Nc1ccc(-c2nc3ccccc3s2)c(O)c1)C1=COCCO1`, the “hERG current change (%, negative = inhibition) at 10uM” value was -73.1%.

Turning to `CCS(=O)(=O)c1nc(S(=O)(=O)c2ccc(Cl)cc2)c(NCCCN2CCOCC2)s1`, the “hERG current change (%, negative = inhibition) at 10uM” value was -41%.

Consider `O=C(O)c1ccc(N2C(=O)CC(Cc3ccccc3)C2=O)cc1` (centres unmarked), for which the “hERG current change (%, negative = inhibition) at 10uM” value is 9.69%.

As for `Cc1ccc(CN(C)C(=O)c2cccc(S(=O)(=O)N3CCCC3)c2)cc1`, the “hERG current change (%, negative = inhibition) at 10uM” value is given as -10.7%.

In the case of `O=C(c1ccccc1)N1CCN(c2ncnc3c2cnn3-c2ccccc2)CC1`, the “hERG current change (%, negative = inhibition) at 10uM” value is recorded as -18%.

In the case of `CN(Cc1ccccc1)c1nc2c(c(=O)[nH]c(=O)n2C)n1Cc1ccccc1`, the “hERG current change (%, negative = inhibition) at 10uM” value was -6.42%.

Regarding `CC(=O)c1cccc(NC(=O)COC(=O)C2=COCCO2)c1`, the “hERG current change (%, negative = inhibition) at 10uM” value is listed as -1.99%.

Regarding `CC(NC(=O)c1ccc2c(c1)OCO2)c1ccccc1` (centres unmarked), the “hERG current change (%, negative = inhibition) at 10uM” value is listed as 13%.

On to `COc1ccc(CCNC(=O)c2ccc(CNS(=O)(=O)c3ccc(C(C)(C)C)cc3)cc2)cc1OC`, for which the “hERG current change (%, negative = inhibition) at 10uM” value is 5.14%.

On to `Cc1ccc(C)c(S(=O)(=O)N2CCCN(C)CC2)c1`, for which the “hERG current change (%, negative = inhibition) at 10uM” value was -0.717%.

Regarding `O=C1CC[C@H](O)CCN1[C@H](CSc1ccc(Br)cc1)Cc1ccccc1`, the “hERG current change (%, negative = inhibition) at 10uM” value was -24.3%.

As for `COc1ccc(O)c(-c2cc(-c3cccc(Br)c3)n[nH]2)c1`, the “hERG current change (%, negative = inhibition) at 10uM” value turned out to be 8.25%.

As for `COc1ccc([N+](=O)[O-])cc1N(CC(=O)O)S(C)(=O)=O`, the “hERG current change (%, negative = inhibition) at 10uM” value came to 13.7%.

Regarding `O=C(COC(=O)Cc1ccc(Br)cc1)NC1CCCCC1`, the “hERG current change (%, negative = inhibition) at 10uM” value is on record as 20.8%.

Consider `O=C(CCC(=O)c1ccc(F)cc1)Nc1cccc(C(F)(F)F)c1`, for which the “hERG current change (%, negative = inhibition) at 10uM” value is 7.22%.

Regarding `CC(CCc1ccccc1)NC(=O)CNC(=O)c1ccccc1Br` (centres unmarked), the “hERG current change (%, negative = inhibition) at 10uM” value is 11.4%.

`CS(=O)(=O)N1CCCC(C(=O)NCCN2CCC(Cc3ccccc3)CC2)C1` (centres unmarked): the “hERG current change (%, negative = inhibition) at 10uM” value was -28%.

For the compound `Cc1cccc(Cl)c1NC(=S)N1CCN(c2ccc([N+](=O)[O-])cn2)CC1`, the “hERG current change (%, negative = inhibition) at 10uM” value is -9.86%.

In the case of `CCOC(=O)N1CCc2c(sc3nc4n(c(=O)c23)N=C(c2ccc(OC)cc2)CS4)C1`, the “hERG current change (%, negative = inhibition) at 10uM” value was found to be 10.9%.

For the compound `CC1(C)CC(=O)C2=C(C1)N(CC1CCCO1)C(=O)C2(NC(=O)c1cccnc1)C(F)(F)F` (centres unmarked), the “hERG current change (%, negative = inhibition) at 10uM” value was found to be 9.64%.

As for `COc1ccc(S(=O)(=O)N2CCN(c3ccccc3)CC2)cc1C(=O)N1CCCC1`, the “hERG current change (%, negative = inhibition) at 10uM” value was -7.86%.

Regarding `COc1ccc(-c2nnc(SCC(=O)N3CCCCC3)o2)c(OC)c1`, the “hERG current change (%, negative = inhibition) at 10uM” value amounted to 6.16%.

Consider `Cc1cc(C)cc(OCc2nnc(SCC(=O)N3CCN(c4ccccc4)CC3)o2)c1`, for which the “hERG current change (%, negative = inhibition) at 10uM” value is reported as 6.09%.

Regarding `Br.COc1ccc(-n2cc(-c3ccc(Cl)cc3)[nH]c2=S)cc1`, the “hERG current change (%, negative = inhibition) at 10uM” value is 9.57%.

Regarding `Cc1c(Cl)cccc1NC(=O)CNCc1ccccc1F.O=C(O)C(=O)O`, the “hERG current change (%, negative = inhibition) at 10uM” value stood at 25.1%.

For `Cc1cccc(C(=O)NC(=S)Nc2ccc3[nH]c(=O)[nH]c3c2)c1`, the “hERG current change (%, negative = inhibition) at 10uM” value is 15.6%.

Turning to `OCC[C@@H]1C[C@@H](O)[C@H](O)[C@]2(Cc3ccccc3CCO2)O1`, the “hERG current change (%, negative = inhibition) at 10uM” value was determined as 20.3%.

Turning to `CCOc1cc(/C=N\NC(=O)c2ccc(C)nc2)cc([N+](=O)[O-])c1O`, the “hERG current change (%, negative = inhibition) at 10uM” value was 3.3%.

Take `O=C(NCCNS(=O)(=O)c1ccccc1)c1ccc([N+](=O)[O-])cc1`: the “hERG current change (%, negative = inhibition) at 10uM” value is given as -12%.

For `O=C(Cc1cccs1)NCc1cccc(CNC(=O)Cc2cccs2)c1`, the “hERG current change (%, negative = inhibition) at 10uM” value is recorded as 17.9%.

Take `O=C(CN1CCOCCOCCN(CC(=O)Nc2ccccc2)CCOCC1)Nc1ccccc1`: the “hERG current change (%, negative = inhibition) at 10uM” value is given as -12.6%.

In the case of `O=C(Nc1nnc(C2CCCC2)s1)C1CCN(S(=O)(=O)c2ccc(Cl)cc2)CC1`, the “hERG current change (%, negative = inhibition) at 10uM” value is given as 13.8%.

Take `COc1ccc(OC)c(Nc2nc(-c3ccccc3O)nc3ccccc23)c1`: the “hERG current change (%, negative = inhibition) at 10uM” value worked out at 18.7%.

Consider `Cc1nn(-c2ccccc2)c(Cl)c1CN(C(=O)CCl)c1ccc(Cl)cc1`, for which the “hERG current change (%, negative = inhibition) at 10uM” value is reported as -8.59%.

Regarding `COC(=O)c1c(NC(=O)c2ccc(C)c(S(=O)(=O)Nc3ccccc3C)c2)sc2c1CCCC2`, the “hERG current change (%, negative = inhibition) at 10uM” value is -2.89%.

In the case of `COc1ccc(C(=O)NCC2CCCN2S(=O)(=O)c2cccs2)cc1` (centres unmarked), the “hERG current change (%, negative = inhibition) at 10uM” value is given as -2.74%.

In the case of `CC(C)CNS(=O)(=O)c1ccc(OCC(=O)NCc2ccco2)cc1`, the “hERG current change (%, negative = inhibition) at 10uM” value was -11.6%.
